# From PubChem BioAssay (Tox21)
# The shares of active, inactive and inconclusive entries below differ from those in the screen. Potencies of inconclusive entries are left out as doubtful fits. Calls of active or inactive are those of the source. Calls follow the shape of the dose curve; as a rule, active = well fitted activation curve with a large enough effect in the signal ratio in the repeat runs, with a control signal flat (not every such curve was filed as active); inconclusive = weak or mixed curves; inactive = flat fitted curve, though single readings scatter; the % refers to the signal ratio.
# Test: qHTS assay for small molecule activators of the heat shock response signaling pathway (AID 743210)
# Details: HeLa HSE-bla reporter, beta-lactamase ratio, 5 h; activation: at 62.6 µM (top of the series)
# Source text: U.S. Tox21 Program National Center for Advancing Translational Sciences [NCATS] NIH Chemical Genomics Center [NCGC] U.S. Environmental Protection Agency [EPA] National Institutes of Environmental Health Sciences [NIEHS] National Toxicology Program [NTP] U.S. Food and Drug Administration [FDA] Tox21 Assay Overview: Various chemicals, environmental and physiological stress conditions may lead to the activation of heat shock response/ unfolded protein response (HSR/UPR). There are three heat shock transcription factors (HSFs) (HSF-1, -2, and -4) mediating transcriptional regulation of the human HSR. To identify the compounds that activate HSR signaling, HSE-bla HeLa cell line (Invitrogen, Carlsbad, CA, USA) containing a beta-lactamase reporter gene under the control of the heat shock response elements was used to screen the Tox21 10K compound library.
# Tox21 Assay Protocol Summary: The CellSensor HSE-bla HeLa cells (Invitrogen, Carlsbad, CA, USA) were dispensed at 1500 cells/6uL/well into 1536-well black wall/clear bottom plates using a Multidrop combi (Thermo Fisher Scientific, Waltham, MA) dispenser. After the assay plates were incubated at 37 C and 5% CO2 overnight, 23 nL of compounds dissolved in DMSO, positive controls or DMSO only was transferred to the assay plate by a Pintool station (Kalypsys, San Diego, CA). The plates were incubated at 37 C for 5 h. After 1 uL of LiveBLAzerTM B/G FRET substrate was added using a Flying Reagent Dispenser (Beckman Coulter, Indianapolis, IN, USA), the plates were incubated at room temperature for 2.5 h, and fluorescence intensity was measured by an Envision plate reader (PerkinElmer, Shelton, CT).
# % is scaled to controls: 0 for no effect and ±100 for the full control effect; potency is read from the fitted curve at half-maximal effect; tags tell the direction and shape of the fitted curve or compound fluorescence and quenching.
SMILES,Potency,activation
CCOC(=O)c1nc(C(Cl)(Cl)Cl)n(-c2ccc(Cl)cc2Cl)n1,inconclusive [partial curve],–
C/C=C/C(=O)O,inconclusive [single point],–
Cc1ccc2oc(CN(Cc3ccccc3)C(=O)Nc3c(F)cc(F)cc3F)c(-c3ccc(Cl)cc3)c2c1,inconclusive,–
CNC(=O)c1ccccc1,–,inactive: -0.0744%
C=CC(=O)OCCC#N,inconclusive,–
CCCCCCCCCCCCCCCCOP(=O)([O-])OCC[N+](C)(C)C,"inconclusive [falling, single point]",–
CCCCCCCCCCOC(=O)c1ccccc1C(=O)OCCCCCCCC,–,inactive: -0.326%
CC(C)C(C)(C)C(C)(C)C(C)(C)S,inconclusive,–
CC1(C)CCC(C)(C)c2cc(C(=O)Nc3ccc(C(=O)O)cc3)ccc21,inconclusive,–
CCCCCCCCCCCCN1CCCCCC1=O,inconclusive,–
CCC(C)(C)CC,inconclusive,–
CCCCCc1ccc(N)cc1,–,inactive: 2.96%
CSc1ccc(/C=C2/C(C)=C(CC(=O)O)c3cc(F)ccc32)cc1,–,inconclusive: 7.74%
O=NN(CCCl)C(=O)NCCCl,–,inactive: 4.58%
CCCCCC[C@@H](O)C/C=C\CCCCCCCC(=O)OCC(O)CO (stereo not given in full),"inconclusive [falling, partial curve, poor fit]",–
NC(=O)NC1NC(=O)NC1=O (stereo not given),inactive,–
C[C@]12CCC(=O)C=C1CC[C@@H]1[C@@H]2C(=O)C[C@@]2(C)[C@H]1CC[C@]2(O)C(=O)CO,inconclusive [activator],–
Cc1ccc(C(=O)c2ccccc2)cc1,–,inactive: -0.489%
C#C[C@]1(OC(C)=O)CC[C@H]2[C@@H]3CCC4=C/C(=N/O)CC[C@@H]4[C@H]3CC[C@@]21CC,inconclusive,–
CNc1ccc([N+](=O)[O-])cc1,"inconclusive [falling, full curve]",–

SMILES,Potency,activation
N#CSc1ccc(N)c([N+](=O)[O-])c1,inconclusive,–
Cc1c(C)c2c(c(C)c1O)CC[C@@](C)(CCC[C@H](C)CCC[C@H](C)CCCC(C)C)O2,"inconclusive [falling, full curve]",–
O=C(c1ccc(O)c(O)c1)c1ccc(O)cc1O,inconclusive,–
CCCCCCCCCCCCOCCOCCOCCOCCOCCOCCOCCOCCOCCO,inconclusive [single point],–
Cc1ccc2c(c1)C(=O)c1ccccc1C2=O,–,inactive: -1.49%
CC(S)C(C)S (stereo not given),–,inactive: -0.801% [at 81.1 µM]
C=CC(=O)OCCOCC(CC)(COCCOC(=O)C=C)COCCOC(=O)C=C,inconclusive,–
CC(C)OC=O,inconclusive,–
Oc1cccc2cc3cccc(O)c3c(O)c12,inconclusive,–
c1ccc2c(c1)c1cccc3ccc4cccc2c4c31,"inconclusive [activator, single point]",–
CCCCOC(=O)CCC(C)=O,"inconclusive [activator, single point]",–
Nc1nc(Cl)cc(Cl)n1,"inconclusive [falling, single point]",–
NNC(=O)OCc1ccccc1,–,inactive: 1.08%
C/C=C(\C)C(=O)OCc1ccccc1,inconclusive [activator],–
CC(=O)Oc1ccc(C(c2ccc(OC(C)=O)cc2)c2ccccn2)cc1,"inconclusive [activator, single point]",–
COc1ccccc1Oc1c(NS(=O)(=O)c2ccc(C(C)(C)C)cc2)nc(-c2ncccn2)nc1OCCO,"inconclusive [activator, single point]",–
C=CC(=C)CCC=C(C)C,inconclusive,–
CCOC(=O)[C@H](CCc1ccccc1)N[C@@H](C)C(=O)N1Cc2cc(OC)c(OC)cc2C[C@H]1C(=O)O,–,inactive: -0.235%
CCCCCCCCOc1ccc(C(=O)c2ccccc2)c(O)c1,inconclusive [activator],–
C=C[C@](C)(O)CC[C@@H]1[C@@]2(C)CCCC(C)(C)[C@@H]2CC[C@@]1(C)O,inconclusive,–
